Values joined by “and” are separate entries in the source; they are usually repeats but may differ in a detail not shown here. Identical values can stand only once. In all, about 390,000 compounds went through this assay and about 17,000 (4.4%) were called active. Inconclusive results, whose numbers are uncertain, are shown with a selection of clear calls. Calls come from the whole dose curve; as a rule, active = well fitted inhibition curve with a large enough effect; inconclusive = small, poorly fitted or top-dose-only effect; inactive = no such curve, though single readings can be large or run the other way. Potencies of inconclusive entries are doubtful fits and often do not repeat.
These molecules were tested against Lysine-specific demethylase 4A (Homo sapiens) (UniProt O75164) (assay: qHTS Assay for Inhibitors of JMJD2A-Tudor Domain). Settings: AlphaScreen JMJD2A-Tudor / H3K4me3 peptide binding; activity change, negative = inhibition: at 114 µM (top of the series).
% is set by controls: 0 for no effect and ±100 for the full control effect; potency is the fitted concentration of half-maximal effect; tags give direction and shape of the fitted curve.
Note: nearly all actives have a fitted effect of over 50% in size.

Sequence of UniProt O75164 (O75164 whole entry, looked up, the tested form may be a part): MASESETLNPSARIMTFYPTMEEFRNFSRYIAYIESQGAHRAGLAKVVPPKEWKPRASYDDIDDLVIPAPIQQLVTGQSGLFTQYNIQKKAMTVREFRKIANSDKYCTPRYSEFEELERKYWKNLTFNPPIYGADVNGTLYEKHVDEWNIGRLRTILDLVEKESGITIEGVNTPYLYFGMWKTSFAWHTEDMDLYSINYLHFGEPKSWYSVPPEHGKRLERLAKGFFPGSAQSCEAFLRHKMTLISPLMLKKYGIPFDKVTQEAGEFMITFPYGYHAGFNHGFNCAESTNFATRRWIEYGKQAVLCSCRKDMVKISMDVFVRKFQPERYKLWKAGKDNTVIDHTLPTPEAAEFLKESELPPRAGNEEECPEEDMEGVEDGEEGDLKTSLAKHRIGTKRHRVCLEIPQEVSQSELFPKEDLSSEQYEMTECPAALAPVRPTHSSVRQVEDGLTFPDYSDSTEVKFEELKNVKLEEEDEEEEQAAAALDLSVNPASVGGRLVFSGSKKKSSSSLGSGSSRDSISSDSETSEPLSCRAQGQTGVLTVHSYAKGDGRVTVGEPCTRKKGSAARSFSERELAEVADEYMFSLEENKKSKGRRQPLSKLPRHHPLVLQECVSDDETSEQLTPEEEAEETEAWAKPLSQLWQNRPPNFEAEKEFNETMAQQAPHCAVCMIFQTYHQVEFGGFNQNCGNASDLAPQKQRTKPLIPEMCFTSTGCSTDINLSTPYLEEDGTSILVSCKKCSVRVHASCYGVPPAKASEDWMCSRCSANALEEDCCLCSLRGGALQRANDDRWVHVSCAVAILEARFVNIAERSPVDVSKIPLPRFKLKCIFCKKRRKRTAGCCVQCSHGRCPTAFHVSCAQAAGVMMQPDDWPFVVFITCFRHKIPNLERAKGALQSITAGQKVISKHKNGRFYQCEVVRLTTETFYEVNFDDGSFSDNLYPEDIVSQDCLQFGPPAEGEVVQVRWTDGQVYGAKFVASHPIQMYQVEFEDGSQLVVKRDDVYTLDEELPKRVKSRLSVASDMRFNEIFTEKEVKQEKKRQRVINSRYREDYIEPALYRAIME

Potency, inactive:
C/C(=N\Nc1ccc(S(N)(=O)=O)cc1[N+](=O)[O-])c1cccnc1, CC(C)(C)c1cc(NC(=O)COc2ccc(Br)cc2)n(-c2ccccc2)n1, COCCNC(=O)c1cc(Br)ccc1Cl, Cc1nc2c(Cl)cccc2c2c1CC(CBr)O2 (stereo not given), Fc1ccccc1COc1cccc(/C=N/n2cnnc2)c1, COc1ccccc1N1C(=O)CC(Sc2ncccc2C(=O)O)C1=O (stereo not given), Cc1ccc(CCNC(=O)c2ccc(CSCc3ccccc3C)o2)cc1, CC(C)=CCOc1ccc2c(C)c(CC(=O)N3C[C@H]4C[C@@H](C3)c3cccc(=O)n3C4)c(=O)oc2c1C, CC1CCCCN1S(=O)(=O)c1ccc(C(=O)Nc2nnc(C3CC3)o2)cc1 (stereo not given), CC(C)(O)c1[nH]c2ccc(C#N)cc2c1C(C)(C)O, COc1cc([C@@H]2c3cc4c(cc3[C@@H](O[C@@H]3O[C@@H]5CO[C@@H](C)O[C@H]5[C@H](O)[C@H]3O)[C@H]3COC(=O)[C@H]23)OCO4)cc(OC)c1O, COC(=O)c1nc(NC(=O)c2cc(OC)c(OC)c(OC)c2)n[nH]1, COc1cccc(-c2nc(=S)c3c(n2Cc2ccco2)CCCC3)c1, O=C(NNS(=O)(=O)c1ccc2ccccc2c1)c1cc(-c2ccccn2)nc2ccccc12, COc1ccc(CNc2ccc(C(=O)O)cc2)cc1, O=C(Nc1ccccc1C(=O)OCC(=O)c1c[nH]c2ccccc12)c1ccco1, O=C1NC2(CCCCC2)Cc2ccccc21, CNC[C@H](NC[C@@H](NCCCc1ccccc1)c1ccccc1)[C@H](C)O, Cc1ccc(S(=O)(=O)N2C(=O)C(c3ccccc3)SC2=Nc2ccccc2)cc1 (stereo not given), Cc1cccc(N2C(=O)CC(N3CCN(c4ccccc4)CC3)C2=O)c1 (stereo not given)

Potency, active:
Cc1ccc(-c2n[nH]c(=S)n2/N=C\c2ccco2)cc1 25.1 µM, Oc1cccc(C(Nc2nccs2)c2ccc3cccnc3c2O)c1 (stereo not given) 31.6 µM, COc1ccc(Cc2nnc(N/N=C/c3ccccc3O)[nH]c2=O)cc1OC 28.2 µM, CN1/C(=C\C=[N+](C)c2ccccc2)C(C)(C)c2ccccc21 35.5 µM, Cc1cc(C)c(C)c(OCCNCc2ccccc2)c1 3.55 µM, COc1cc2ccnc(Cc3cccc(OC)c3OC)c2cc1OC 79.4 µM, O=C(Nc1nc(-c2ccccn2)cs1)c1cc(Cl)ccc1[N+](=O)[O-] 56.2 µM, Cc1nc(C(=O)O)cc2c1[nH]c1ccccc12 79.4 µM, Fc1ccc(N2CCN(c3nc(CN4CCOCC4)nc4scc(-c5ccccc5)c34)CC2)cc1 44.7 µM, COc1ccc(NN=Nc2nc3c([nH]2)c(=O)n(C)c(=O)n3C)cc1 8.91 µM, CN(C)c1ccc(C(CNS(=O)(=O)c2ccc([N+](=O)[O-])cc2)N2CCCC2)cc1 (stereo not given) 44.7 µM, CCOc1ccc2c(c1)[nH]c(=S)n2C 56.2 µM, CCN(c1ccccc1)S(=O)(=O)c1ccc(N2CCN(c3ccc(O)cc3)CC2)nc1 22.4 µM, CCN(CC)P(=O)(/C(Cl)=C\Nc1c(C)n(C)n(-c2ccccc2)c1=O)N(CC)CC 15.8 µM, COCCCN=C(c1ccco1)n1c(=S)nc(-c2ccco2)n(CCCOC)c1=S 56.2 µM, OCCN(Cc1ccccc1)CC1CC=CCC1 (stereo not given) 10 µM, O=C(O)CCCN1C(=O)/C(=C/c2ccc(-c3nc4ccccc4s3)o2)SC1=S 10 µM, C/C=C/c1ccc(OCCCNC2CCCC2)c(OC)c1 7.94 µM, COc1cc(C)c(CN2CCN(c3ncccn3)CC2)cc1C 50.1 µM

Potency, inconclusive:
O=C(Cc1cccs1)Nc1nc2c(s1)CCCC2 39.8 µM [inhibitor, partial curve], COc1ccc(CNC(=O)c2c(Nc3ccccc3C)sc(C(=O)c3ccccc3)c2N)cc1 28.2 µM [inhibitor, partial curve], COc1ccc(-c2cc(C(=O)Nc3ccc(Br)cc3)no2)cc1 63.1 µM [inhibitor, partial curve, poor fit], NC(Cc1ccccc1)C(=O)N1CCCCC1 (stereo not given) 89.1 µM [inhibitor, single point], CCCn1nnnc1NCc1cccn1C 22.4 µM [inhibitor, partial curve], Cc1[nH]c2ccc(C(=O)OC(C)C(=O)N(C)C3CCCCC3)cc2c1C (stereo not given) 28.2 µM [inhibitor, full curve], CN(C)C(=S)N=c1ssc(=S)n1Cc1cccnc1 12.6 µM [inhibitor, partial curve], O=Nc1c(O)n(Cc2ccc(Cl)c(Cl)c2)c2ccccc12 56.2 µM [inhibitor, partial curve], CCOC(=O)c1c(C)sc2c1N(C(=O)CN(CC)CC)c1cc(Cl)ccc1S2 89.1 µM [inhibitor, partial curve], Cc1ccc(NC(/C=C/N(C)C)=C/C(=O)C(F)(F)F)c(C)c1 56.2 µM [inhibitor, partial curve], COc1ccccc1CNC(=O)CS(=O)Cc1nc(-c2ccc(OC)c(OC)c2)oc1C (stereo not given) 50.1 µM [inhibitor, partial curve], O=C(O)c1cccc(NC(=S)NC(=O)c2ccncc2)c1 39.8 µM [inhibitor, single point], Cc1ccn(CCSCC(=O)O)n1 15.8 µM [inhibitor, full curve], COc1ccc2c(c1)c(C(=O)N/N=C/c1cn(C)c3ccccc13)c(C)n2C 63.1 µM [inhibitor, partial curve, poor fit], CCCCn1c(CN2C(=O)c3ccccc3C2=O)nc2ccccc2c1=O 112 µM [inhibitor, partial curve, poor fit], O=C1CCCC2=C1[C@@]1(CCC(c3ccccc3)C1)N=C(Nc1nc3ccccc3o1)N2 (stereo not given in full) 35.5 µM [inhibitor, partial curve, poor fit] and 50.1 µM [inhibitor, partial curve], COc1ccccc1N=NC1=C(O)CC(C)(C)CC1=O 35.5 µM [inhibitor, single point], COc1ccc(/C=C/c2nc(C#N)c(N3CCC(C)CC3)o2)cc1OC 31.6 µM [inhibitor, full curve, poor fit], COc1ccc(Nc2ncc3c(n2)CCN(Cc2ccc(Br)s2)C3)c(OC)c1 14.1 µM [inhibitor, full curve], O=C(CSc1nc(-c2cccs2)nc2cc(=O)[nH]n12)Nc1ccccc1Cl 56.2 µM [inhibitor, single point], Cc1cc(Cl)ccc1C(=O)C1CCCN(C(=O)c2cccc(N3CCCC3=O)c2)C1 (stereo not given) 17.8 µM [inhibitor, full curve], Cc1oc(/C=N/NC(=O)CN(c2ccccc2Cl)S(C)(=O)=O)cc1Br 79.4 µM [inhibitor, single point], CCc1ccc2c(c1)NC(c1cccnc1)=NC(c1ccc(C(C)(C)C)cc1)=N2 10 µM [inhibitor, full curve, poor fit], Cc1nc(N2CCN(Cc3ccc4c(c3)OCO4)CC2)c2cc(-c3ccccc3)sc2n1 35.5 µM [inhibitor, partial curve], COC(=O)c1cc(NS(=O)(=O)c2ccc(N3CCOCC3)c([N+](=O)[O-])c2)cc(C(=O)OC)c1 79.4 µM [inhibitor, single point], Fc1ccc(C2CC(c3cccs3)=NN2C(=S)Nc2ccccc2)cc1 (stereo not given) 89.1 µM [inhibitor, partial curve], CCN(CC(=O)Nc1c(F)cccc1F)C(=O)CCc1nc2sc3c(c2c(=O)[nH]1)CCCC3 22.4 µM [inhibitor, full curve], COC(=O)/C(=C/Nc1cccc2ccccc12)[N+](=O)[O-] 89.1 µM [inhibitor, partial curve], Cc1ccc(-c2nc(Nc3ccc(O)cc3)c3ccccc3n2)cc1 56.2 µM [inhibitor, partial curve, poor fit], CCOc1ccc(NS(=O)(=O)c2ccc3nc(-c4ccccc4)[nH]c3c2)cc1 28.2 µM [inhibitor, full curve, poor fit], NC(=O)Cn1c(S(=O)(=O)Cc2ccccc2)nc2ccccc21 100 µM [inhibitor, single point], O=C(NCCS(=O)(=O)c1ccc(Cl)cc1)c1ccc(F)cc1 35.5 µM [inhibitor, single point], CC(Oc1cccc(Cl)c1)C(=O)NCc1ccc(S(N)(=O)=O)cc1 (stereo not given) 12.6 µM [inhibitor, full curve, poor fit], CN(C(=O)c1cccc(NC(=O)Cc2ccc([N+](=O)[O-])cc2)c1)C1CCCC1 100 µM [inhibitor, partial curve, poor fit]

Activity change, negative = inhibition, inactive:
OCCNc1cnc2ccccc2n1 -28.6% [at 11.4 µM]

Activity change, negative = inhibition, inconclusive:
c1ccc(CSc2ccc(-c3ccccn3)nn2)nc1 -100% [inhibitor]
